This note sets out measurements from patent publication US20210169936A1 (AFFIMED, published 2021).

This assay concerns the target T1, EpCAM on COLO 205 cells (UniProt P16422 24-314, limits assumed).
T1 sequence (looked up): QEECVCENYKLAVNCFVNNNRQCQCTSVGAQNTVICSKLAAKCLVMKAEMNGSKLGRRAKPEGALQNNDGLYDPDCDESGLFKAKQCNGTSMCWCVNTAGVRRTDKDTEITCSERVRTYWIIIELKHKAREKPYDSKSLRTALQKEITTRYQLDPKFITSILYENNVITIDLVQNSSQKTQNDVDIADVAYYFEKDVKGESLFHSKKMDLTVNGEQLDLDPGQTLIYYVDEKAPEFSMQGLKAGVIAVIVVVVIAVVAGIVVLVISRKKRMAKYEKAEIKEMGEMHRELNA
The assay can be described thus: cell-based or functional assay.

B1: EpCAM/NKp46 scFv-IgAb_73 (bispecific antibody)
heavy: QVQLVQSGAEVKKPGSSVKVSCKASGGTFSSYTISWVRQAPGQGLEWMGGIIPIFGTANYAQKFQGRVTITADESTSTAYMELSSLRSEDTAVYYCARGGSSGWWWGQGTLVTVSSASTKGPSVFPLAPSSKSTSGGTAALGCLVKDYFPEPVTVSWNSGALTSGVHTFPAVLQSSGLYSLSSVVTVPSSSLGTQTYICNVNHKPSNTKVDKKVEPKSCDKTHTCPPCPAPEFEGGPSVFLFPPKPKDTLMISRTPEVTCVVVAVSHEDPEVKFNWYVDGVEVHNAKTKPREEQYNSTYRVVSVLTVLHQDWLNGKEYKCKVSNKALPAPIEKTISKAKGQPREPQVYTLPPSREEMTKNQVSLTCLVKGFYPSDIAVEWESNGQPENNYKTTPPVLDSDGSFFLYSKLTVDKSRWQQGNVFSCSVMHEALHNHYTQKSLSLSPGGGGGSGGGGSGGGGSGGGGSGGGGSGGGGSDIQMTQSPASLSASVGETVTITCRVSENIYSYLAWYQQKQGKSPQLLVYNAKTLAEGVPSRFSGSGSGTQFSLKINSLQPEDFGSYYCQHHYGTPWTFGGGTKLEIKGGSGGSGGSGGSGGSGGSGGSEVQLQESGPGLVKPSQSLSLTCTVTGYSITSDYAWNWIRQFPGNKLEWMGYITYSGSTSYNPSLESRISITRDTSTNQFFLQLNSVTTEDTATYYCARGGYYGSSWGVFAYWGQGTLVTVSA
light: QSVLTQPPSASGTPGQRVIISCSGSHSNIGSNNVNWYQQLPGTAPKLLIYNNNQRPSGVPDRFSGSKSGTSASLAISGLQSEDESDYFCGTWDDSLNGPVFGGGTKLTVLGQPKAAPSVTLFPPSSEELQANKATLVCLISDFYPGAVTVAWKADSSPVKAGVETTTPSKQSNNKYAASSYLSLTPEQWKSHRSYSCQVTHEGSTVEKTVAPTECS
Take B1: the “Efficacy [%] of target cell lysis at an E:T ratio of 5:1, COLO 205, NK cells preloaded, frozen and thawed” value was 51.7%.

B2: EpCAM/NKG2D scFv-IgAb_75 (bispecific antibody)
heavy: QVQLVQSGAEVKKPGSSVKVSCKASGGTFSSYTISWVRQAPGQGLEWMGGIIPIFGTANYAQKFQGRVTITADESTSTAYMELSSLRSEDTAVYYCARGGSSGWWWGQGTLVTVSSASTKGPSVFPLAPSSKSTSGGTAALGCLVKDYFPEPVTVSWNSGALTSGVHTFPAVLQSSGLYSLSSVVTVPSSSLGTQTYICNVNHKPSNTKVDKKVEPKSCDKTHTCPPCPAPEFEGGPSVFLFPPKPKDTLMISRTPEVTCVVVAVSHEDPEVKFNWYVDGVEVHNAKTKPREEQYNSTYRVVSVLTVLHQDWLNGKEYKCKVSNKALPAPIEKTISKAKGQPREPQVYTLPPSREEMTKNQVSLTCLVKGFYPSDIAVEWESNGQPENNYKTTPPVLDSDGSFFLYSKLTVDKSRWQQGNVFSCSVMHEALHNHYTQKSLSLSPGGGGGSGGGGSGGGGSGGGGSGGGGSGGGGSQSALTQPASVSGSPGQSITISCSGSSSNIGNNAVNWYQQLPGKAPKLLIYYDDLLPSGVSDRFSGSKSGTSAFLAISGLQSEDEADYYCAAWDDSLNGPVFGGGTKLTVLGGSGGSGGSGGSGGSGGSGGSQVQLVESGGGLVKPGGSLRLSCAASGFTFSSYGMHWVRQAPGKGLEWVAFIRYDGSNKYYADSVKGRFTISRDNSKNTLYLQMNSLRAEDTAVYYCAKDRGLGDGTYFDYWGQGTTVTVSS
light: QSVLTQPPSASGTPGQRVIISCSGSHSNIGSNNVNWYQQLPGTAPKLLIYNNNQRPSGVPDRFSGSKSGTSASLAISGLQSEDESDYFCGTWDDSLNGPVFGGGTKLTVLGQPKAAPSVTLFPPSSEELQANKATLVCLISDFYPGAVTVAWKADSSPVKAGVETTTPSKQSNNKYAASSYLSLTPEQWKSHRSYSCQVTHEGSTVEKTVAPTECS
Turning to B2, the “Efficacy [%] of target cell lysis at an E:T ratio of 5:1, COLO 205, NK cells not preloaded, antibody freshly added at 10 ug/mL” value is 33.5%; the “Efficacy [%] of target cell lysis at an E:T ratio of 5:1, COLO 205, NK cells preloaded, frozen and thawed” value came to 22.2%.

B3: EpCAM/CD16A scFv-IgAb_80 (bispecific antibody)
heavy: QVQLVQSGAEVKKPGSSVKVSCKASGGTFSSYTISWVRQAPGQGLEWMGGIIPIFGTANYAQKFQGRVTITADESTSTAYMELSSLRSEDTAVYYCARGGSSGWWWGQGTLVTVSSASTKGPSVFPLAPSSKSTSGGTAALGCLVKDYFPEPVTVSWNSGALTSGVHTFPAVLQSSGLYSLSSVVTVPSSSLGTQTYICNVNHKPSNTKVDKKVEPKSCDKTHTCPPCPAPEFEGGPSVFLFPPKPKDTLMISRTPEVTCVVVAVSHEDPEVKFNWYVDGVEVHNAKTKPREEQYNSTYRVVSVLTVLHQDWLNGKEYKCKVSNKALPAPIEKTISKAKGQPREPQVYTLPPSREEMTKNQVSLTCLVKGFYPSDIAVEWESNGQPENNYKTTPPVLDSDGSFFLYSKLTVDKSRWQQGNVFSCSVMHEALHNHYTQKSLSLSPGGGGGSGGGGSGGGGSGGGGSGGGGSGGGGSSYVLTQPSSVSVAPGQTATISCGGHNIGSKNVHWYQQRPGQSPVLVIYQDNKRPSGIPERFSGSNSGNTATLTISGTQAMDEADYYCQVWDNYSVLFGGGTKLTVLGGSGGSGGSGGSGGSGGSGGSQVQLVQSGAEVKKPGESLKVSCKASGYTFTSYYMHWVRQAPGQGLEWMGAIEPMYGSTSYAQKFQGRVTMTRDTSTSTVYMELSSLRSEDTAVYYCARGSAYYYDFADYWGQGTLVTVSS
light: QSVLTQPPSASGTPGQRVIISCSGSHSNIGSNNVNWYQQLPGTAPKLLIYNNNQRPSGVPDRFSGSKSGTSASLAISGLQSEDESDYFCGTWDDSLNGPVFGGGTKLTVLGQPKAAPSVTLFPPSSEELQANKATLVCLISDFYPGAVTVAWKADSSPVKAGVETTTPSKQSNNKYAASSYLSLTPEQWKSHRSYSCQVTHEGSTVEKTVAPTECS
As for B3, the “Efficacy [%] of target cell lysis at an E:T ratio of 5:1, COLO 205, NK cells preloaded, frozen and thawed” value worked out at 101%.
